# Test results as given in the supplement of paper PMC3334620.
# In all, about 33,000 sequences were measured (“E-score (-0.5 to 0.5)”: median about -0.016, highest 2% from about 0.32 on). This is one part of the list.
# Molecular target: T1, Stp1 (UniProt B3LFK1)
# T1 sequence: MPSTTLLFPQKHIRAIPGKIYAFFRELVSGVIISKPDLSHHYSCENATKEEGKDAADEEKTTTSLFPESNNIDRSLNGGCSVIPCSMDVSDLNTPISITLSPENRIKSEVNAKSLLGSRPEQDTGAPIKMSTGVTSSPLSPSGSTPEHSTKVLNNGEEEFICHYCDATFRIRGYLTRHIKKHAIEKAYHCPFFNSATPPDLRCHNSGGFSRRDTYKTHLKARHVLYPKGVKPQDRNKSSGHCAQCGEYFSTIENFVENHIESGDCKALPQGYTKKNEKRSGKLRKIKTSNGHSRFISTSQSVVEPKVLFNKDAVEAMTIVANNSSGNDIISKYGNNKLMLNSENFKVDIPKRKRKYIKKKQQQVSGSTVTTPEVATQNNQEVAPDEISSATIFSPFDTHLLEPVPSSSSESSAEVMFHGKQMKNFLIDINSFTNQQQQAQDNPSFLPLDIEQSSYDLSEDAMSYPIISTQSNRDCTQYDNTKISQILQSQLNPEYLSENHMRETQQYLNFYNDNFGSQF
# Test: PBM E-score (8-mer binding enrichment) (E-score (-0.5 to 0.5)); higher = stronger / more preferred TF binding; most listed sequences are background and not binding sites
# Settings: protein concentration: 200 nM; construct: GST-full length
# Method: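 Universal 'all 10-mer' protein binding microarrays (Agilent AMADID 015681) probed with GST-tagged S. cerevisiae TFs (full-length or DBD) made by in vitro transcription/translation (PURExpress), about 100-200 nM. Bound TF was detected with fluorescent anti-GST. Each ungapped 8-mer (which stands for itself and its reverse complement) is scored by the PBM enrichment score (E-score), a modified Wilcoxon-Mann-Whitney statistic from -0.5 to +0.5, computed with the Universal PBM Analysis Suite. Scale: above 0.35 generally sequence-specific binding.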
row,Sequence,PBM E-score
1,CCATTGTA,-0.0176
2,TACAAGCA,0.146
3,AATGCACT,0.109
4,AAAGCCCA,0.0863
5,GAAAGTCA,-0.0882
6,AAGAATTA,-0.004
7,ATGATAGC,0.134
8,CTGAAGGC,-0.14
9,TATTTAGA,0.305
10,GTCTAGAA,0.0594
11,CATCCCCG,-0.075
12,CAAAATTC,0.183
13,ACCCGGAA,0.0448
14,GGCCTTAC,-0.0401
15,AAAGATAA,0.215
16,CGGGCGGA,-0.173
17,AGGAAACT,-0.156
18,ATTCCATC,0.0322
19,ACCCTATA,-0.28
20,CTTATCAC,-0.0489
21,GGATGCGA,-0.14
22,AAATGATC,-0.0746

row,Sequence,PBM E-score
1,CGGGCTCC,-0.285
2,CTACAGGA,-0.16
3,CAGGACCG,-0.285
4,ACAGGATC,-0.0961
5,GCCAATTA,0.0177
6,ACGTTTAG,-0.166
7,ATGCTTCG,0.0151
8,CGTGTGTC,0.204
9,CGAAGGGC,0.16
10,CCACATGA,0.0977
11,GAAGTGAC,-0.0146
12,CCCAATTA,0.024
13,CGGGACTA,-0.231
14,GAAACGAA,0.133
15,AAAATATG,0.102
16,CTCACGTC,-0.298
17,CCGTGCCC,0.365
18,AGCTCCTC,-0.254
19,AAACGAGT,0.0252
20,AGTTTCAA,-0.061
21,CTCAATGC,0.0245
22,ATGTTGAA,-0.0204

row,Sequence,PBM E-score
1,AACGATGC,0.097
2,ACAATGAT,-0.00309
3,GTGAGGAA,-0.0636
4,CGTGAAAC,0.106
5,ACGCAAAT,-0.00737
6,TACAGCTA,-0.309
7,CGACTTGC,-0.0985
8,GACATTAA,-0.0576
9,CCCCACGA,-0.176
10,CATGAGGA,-0.0457
11,TCCACGAA,0.223
12,GGGTTTAA,-0.06
13,AGTCGGCC,-0.107
14,ATATAAAC,0.196
15,AGACAGCG,-0.02
16,GTCGGTAA,-0.195
17,GTTGCGAA,0.0118
18,TCGGGCAA,-0.167
19,TAGATATA,0.175
20,ACATTCAG,-0.126
21,AAATAAAA,0.174
22,AGCCAGTA,-0.192

row,Sequence,PBM E-score
1,ATGATTAC,0.051
2,AATACAAC,0.188
3,AATAACCA,0.0512
4,GAGGAATC,-0.132
5,CTTACCAC,-0.171
6,CAATAGCA,-0.267
7,ACTACGCC,0.0854
8,ATAACATC,0.16
9,AGTATACG,0.114
10,AATTTACA,0.0653
11,CCCCTTAC,-0.217
12,CGTCTCAA,0.0114
13,AAAGAAAA,0.243
14,ATTCTAAC,-0.103
15,GTAATAGA,-0.0791
16,GCTTACGA,-0.271
17,AACAAGTA,0.0306
18,CCCTCCCA,-0.216
19,AACCTCTG,-0.194
20,TGCGCCAA,0.0818
